Experimental data taken from the supplement of paper PMC3334620.
The full ranking holds about 33,000 sequences; the median of “E-score (-0.5 to 0.5)” is about -0.04, and the highest 2% start at about 0.36. This is one part of the list.

target: T1, Hmlalpha2 (UniProt P0CY09); assay: PBM E-score (8-mer binding enrichment) (E-score (-0.5 to 0.5)); higher = stronger / more preferred TF binding; most listed sequences are background and not binding sites; conditions: protein concentration: 200 nM; construct: GST-full length
T1 sequence: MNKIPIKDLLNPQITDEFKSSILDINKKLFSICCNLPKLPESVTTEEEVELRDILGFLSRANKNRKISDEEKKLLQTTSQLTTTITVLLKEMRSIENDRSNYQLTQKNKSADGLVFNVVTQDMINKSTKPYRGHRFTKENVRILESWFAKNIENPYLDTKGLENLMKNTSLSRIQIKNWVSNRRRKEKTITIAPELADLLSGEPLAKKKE
In short: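 Universal all-10-mer Agilent arrays, fresh or stripped once, were converted to double-stranded form by primer extension. GST-tagged yeast transcription factors from PURExpress in vitro transcription/translation, full-length or DNA-binding domain only, were applied at about 100-200 nM and detected with fluorescent anti-GST. After masliner normalisation, the Universal PBM Analysis Suite scored each ungapped eight-base word together with its reverse complement by E-score.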

Row | Sequence | PBM E-score
1 | ACCCCCGC | -0.277
2 | AGCAGGAT | -0.14
3 | AGTCAACC | -0.221
4 | GATGCTTA | -0.132
5 | GGCATTAA | 0.0928
6 | GGCTGCAC | -0.118
7 | AAGTATCT | 0.0958
8 | GCGCAGAA | 0.0478
9 | ACTGGTCC | -0.218
10 | CGTAGGAG | -0.0815
11 | ATGTTTAC | 0.433
12 | ATAACTAA | 0.227
13 | CACGTCAG | -0.0908
14 | AAACCTTG | 0.0591
15 | GGAGGTGA | -0.0585
16 | TCCATCAA | 0.0233
17 | GTGGGCTA | -0.235
18 | CATGTCTA | 0.271
19 | AGAAGTCG | -0.131
20 | ACATGCAT | 0.337
21 | GTGGATGA | 0.0559
22 | CCCACCGG | -0.341
23 | AATAAATG | 0.115
24 | AAACAATG | 0.161
25 | ATCCGGAG | 0.0704

Row | Sequence | PBM E-score
26 | CGCCTGTA | 0.0272
27 | AATCTTAA | 0.0438
28 | CGGCGAAA | -0.0257
29 | AGACTTAA | 0.0443
30 | CGGGCTGA | -0.252
31 | AGAAATAA | 0.166
32 | GCCATAGA | -0.329
33 | AATGGTGA | -0.00088
34 | TACGCTGA | 0.122
35 | AGCACGGC | 0.102
36 | ACAGGAGT | 0.134
37 | ATCCAATC | -0.0868
38 | GAGTCCCC | -0.362
39 | ACTTAGAA | 0.0319
40 | ACTTTTAC | 0.334
41 | CCCATAAA | -0.0807
42 | CAGCCTGA | -0.177
43 | GTCAGAGA | -0.108
44 | TTATGGAA | -0.196
45 | ATTGACGA | 0.116
46 | ATGCAAAC | -0.0222
47 | ATGACTCA | -0.0347
48 | AAGTGAGG | -0.187
49 | CTTCGAAA | 0.119
50 | CGGTAACC | 0.0427

Row | Sequence | PBM E-score
51 | AGTGGCAC | -0.237
52 | ACCGCTCC | -0.193
53 | ACAGTCAT | 0.0263
54 | AACAGTCA | -0.0853
55 | ATGAAGAG | -0.0482
56 | GTTCAAAC | 0.092
57 | TGGTAGAA | 0.0266
58 | TAAAAGAA | 0.166
59 | CAGGCGGG | -0.323
60 | CATACTGC | -0.134
61 | CCCTACCG | -0.206
62 | CAAGAATA | -0.00782
63 | ATCTACGC | 0.368
64 | ATGGAAGG | -0.196
65 | CCTTGAGC | -0.151
66 | GATCCGTA | -0.322
67 | CTTCGATC | -0.122
68 | TGCACACA | 0.14
69 | CATGGCCG | 0.099
70 | CACAACGG | 0.107
71 | GGAGAGAA | -0.1
72 | AAACAGGC | -0.186
73 | AAGAACAA | 0.309
74 | ATGGTACC | 0.0108
75 | GAACCTGC | -0.102

Row | Sequence | PBM E-score
76 | AAGCCGTC | -0.134
77 | ACTGTCAT | -0.0408
78 | AGATTTAC | 0.289
79 | CACGCCAG | -0.0109
80 | AGACTAAA | -0.0357
81 | CCGTGCCG | -0.175
82 | CTTTACCA | 0.0599
83 | CCACGAAG | -0.0774
84 | ATCCGAGC | -0.175
85 | CGTACAAA | 0.225
86 | AGAATGTG | -0.125
87 | CCTGCCCG | -0.141
88 | GTGAGATA | -0.116
89 | GGTGTTTA | 0.112
90 | GTTCGGGA | -0.0459
91 | CCGAGAGG | -0.259
92 | CAGCCTCG | 0.00779
93 | GAGCAAGA | -0.159
94 | ACTATCTA | 0.169
95 | ATTCCGTG | 0.119
96 | CAGAAGAG | -0.19
97 | CCGTCGCG | -0.066
98 | GAGAAGAC | -0.077
99 | AGGAAGAT | -0.192
100 | AAATTTGT | 0.148

Row | Sequence | PBM E-score
101 | GCTGGCAA | -0.147
102 | TCAGGCGA | -0.202
103 | ATTAGTGC | 0.0211
104 | GAACAATA | 0.224
105 | AATAGGGA | -0.195
106 | CACAGCGG | 0.0576
107 | AAATCTAG | -0.0263
108 | CAACGATA | 0.126
109 | ATGCCAAC | 0.0893
110 | AGGAGTCG | -0.171
111 | GTGTTAGA | 0.305
112 | GCGACTGA | -0.167
113 | AGATCCGC | -0.21
114 | CAGCACAG | 0.0911
115 | ATTATAAC | 0.135
116 | CTGGGCCA | -0.374
117 | CTCACGCA | 0.0712
118 | CTGCGCAG | -0.105
119 | ATCTTCTC | -0.215
120 | CCTGGATC | -0.221
121 | CCATGCCC | -0.271
122 | ACCCGCAA | -0.192
123 | ACTTGTTA | 0.259
124 | CGAACCTA | -0.0795
125 | ATTTACTG | 0.051

Row | Sequence | PBM E-score
126 | ATGGCTTG | 0.0344
127 | TAACGCTA | 0.133
128 | AATTGGGA | -0.072
129 | AACCTGTG | 0.145
130 | AACAATGT | 0.279
131 | CCGCGCAA | -0.0442
132 | CGATTCGA | 0.0306
133 | AATGCCCC | -0.262
134 | ACACTAGT | 0.0139
135 | AGGTTGTC | 0.0486
136 | GTTTGCAA | 0.281
137 | CGACGCTC | -0.155
138 | CTGCACAC | 0.0406
139 | ACTCAAGA | -0.0922
140 | AAGGCCTC | -0.205
141 | ACGCTGTC | 0.107
142 | ATATTTTC | 0.0479
143 | CCTAGTCG | -0.178
144 | CTACGAGC | -0.184
145 | CTGGGCCC | -0.329
146 | AGTAAATA | 0.22
147 | AACGACCG | -0.104
148 | AGATAGCG | 0.0912
149 | ATCTCTGC | -0.272
150 | GTGCAGTA | 0.0382

Row | Sequence | PBM E-score
151 | GCCAACAC | 0.198
152 | GAGCTGGA | -0.284
153 | CAATCTTC | 0.0595
154 | ATTCCCCC | -0.294
155 | ATCTCGTG | -0.033
156 | TGGTTTAA | 0.224
157 | CACGCCCC | 0.0158
158 | ATACGCAG | 0.233
159 | ATCACTCC | -0.129
160 | CGACTGAC | -0.137
161 | GATAGCTA | -0.281
162 | GTACCAGA | 0.033
163 | CAAATATC | 0.169
164 | CCCGTACA | 0.0325
165 | ACGCTTCT | -0.0872
166 | GGTGCAGA | -0.202
167 | CACTTTGC | 0.133
168 | CGGGAGCA | -0.331
169 | ATGAACCC | -0.0656
170 | TATGTCCA | -0.0193
171 | GCAGCAAC | 0.0954
172 | ATATTGAG | -0.00475
173 | AAGCTAAC | 0.0831
174 | CTCCCTGA | -0.27
175 | CTACCTGA | -0.0237

Row | Sequence | PBM E-score
176 | CACCAAAG | -0.0791
177 | ACGGAGAA | -0.0887
178 | AGACCCAT | -0.164
179 | AATTGCCT | -0.0627
180 | CCGTCTTC | -0.236
181 | CAATTTCC | -0.0918
182 | ATACATCC | 0.308
183 | GATGCAGC | -0.103
184 | CAACTAGG | 0.0499
185 | AGCGCTGG | -0.307
186 | AGGCCGAT | -0.0701
187 | AATCCATT | 0.101
188 | AACTTCCA | -0.0149
189 | ATGATCTC | -0.111
190 | CAACCGCA | -0.0431
191 | CACCACCC | -0.155
192 | CGTACTTA | 0.172
193 | AACTTGGG | -0.199
194 | GACCGCCA | -0.119
195 | AAGCTCGC | -0.047
196 | CGTGAGTA | 0.0575
197 | AAATAGTC | -0.143
198 | GAGAAGGC | -0.242
199 | CGAGGTGA | -0.103
200 | GGAATCTA | -0.132

Row | Sequence | PBM E-score
201 | CCATGGGG | -0.116
202 | CACTCCCC | -0.117
203 | CACTCTGG | -0.109
204 | AGCCAATA | 0.0379
205 | CATATTGG | 0.0466
206 | CTTGGCGC | -0.0914
207 | CGATAGAA | -0.136
208 | GAAATCAA | -0.0375
209 | CAGTTCGC | -0.182
210 | AATAAAGC | -0.0138
211 | AGACCCGC | -0.0103
212 | AGGATCGG | -0.107
213 | TAAATCAA | 0.158
214 | GATCAGCA | -0.155
215 | ACCGGAGG | -0.147
216 | AGACCCCA | -0.227
217 | ACAGAGGA | -0.0117
218 | TGAGCCCA | -0.171
219 | ATGAGACG | -0.154
